Consider 61 compounds from ChEMBL document CHEMBL1201862, “PubChem BioAssay data set” (2004).

Counter-ions that a name gives are not always drawn.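 The compound was tested at five concentrations on cells cultured in 96-well plates, with a 48-hour exposure period. At the GI50, growth is halved.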 The source made the active and inactive calls. No stated cut-off is given here; in the data, active = GI50 up to about 1.1 µM and inactive = higher. Where only a bound is given, the exact number is not on record here.

In the assay the test system is NCI-H322M. The assay is described as follows: NCI anticancer screen, dose series, 48 h.
For `CN1CCC(n2[nH]c(-c3ccccc3)c(Cc3ccccc3)c2=O)CC1` [BENZPIPERYLON], the GI50 is inactive: > 100 µM.
Under `O=C(/C=C/c1ccc(O)c(O)c1)OCc1ccccc1` [BENZYL CAFFEATE] stands inactive: 30.5 µM; under `NS(=O)(=O)c1cc2c(cc1Cl)NC(Cc1ccccc1)NS2(=O)=O` (stereo unspecified) [BENZYLHYDROCHLOROTHIAZIDE], inactive: > 100 µM.
Next, `CC(C)=CCC/C(C)=C/COc1c2ccoc2cc2oc(=O)ccc12` [BERGAMOTTIN]: inactive: 33.8 µM.
Next, `COc1c2ccoc2cc2oc(=O)ccc12` [BERGAPTEN]: inactive: > 100 µM.
In the case of `CC(=O)Oc1ccc(C(c2ccc(OC(C)=O)cc2)c2ccccn2)cc1` [BISACODYL], the GI50 was inactive: 2.36 µM.
Under `COc1ccc2c([nH]c3c(O)c(-c4c(C)cc5c([nH]c6c(CC=C(C)C)c(OC)ccc65)c4O)c(C)cc32)c1CC=C(C)C` [BISMURRAYAFOLINE B] stands inactive: > 100 µM; under `O=C1c2cccc3cccc(c23)C(=O)N1CCCNCCCCNCCCNCCCN1C(=O)c2cccc3cccc(c23)C1=O` [BISNAPHTHALIMIDOPROPYL SPERMIDINE TRIHYDROBROMIDE], active: 0.279 µM; under `CC(C)C[C@H](NC(=O)[C@H](Cc1ccccc1)NC(=O)c1cnccn1)B(O)O` [BORTEZOMIB], active: < 0.0138 µM.
Next, `Cc1c(-c2ccc(-c3ccccc3F)cc2)nc2ccc(F)cc2c1C(=O)O` [BREQUINAR SODIUM]: inactive: 15.2 µM; `CC(C)C[C@H]1C(=O)N2CCC[C@H]2[C@]2(O)O[C@](NC(=O)[C@@H]3C=C4c5cccc6[nH]c(Br)c(c56)C[C@H]4N(C)C3)(C(C)C)C(=O)N12` [BROMOCRIPTINE MESYLATE]: inactive: > 100 µM.
Next, `O=c1[nH]c(=O)n([C@H]2C[C@H](O)[C@@H](CO)O2)cc1Br` [BROXURIDINE]: inactive: > 100 µM; `C[C@H](CC[C@@H](O)C(C)(C)O)[C@H]1CC[C@@]2(C)[C@@H]3CC=C4[C@@H](CC[C@H](O)C4(C)C)[C@]3(C)C(=O)C[C@]12C` [BRYODULCOSIGENIN]: inactive: 23.6 µM.
With `CCCCCCCCCCCC1CC(=O)NCCCN(C)CCCCN(C)CCCN1C` (stereo unspecified) [BUDMUNCHIAMINE A], the GI50 was inactive: 1.73 µM.
Under `CC(NC(C)(C)C)C(=O)c1cccc(Cl)c1` (stereo unspecified) [BUPROPION HYDROCHLORIDE] stands inactive: > 100 µM; under `CS(=O)(=O)OCCCCOS(C)(=O)=O` [BUSULFAN], inactive: > 250 µM.
`CCCCS(=N)(=O)CC[C@H](N)C(=O)O` (stereo partly specified) [BUTHIONINE SULFOXIME]: the GI50 is inactive: > 5000 µM.
For the compound `C[C@@H]1C[C@@H](O)[C@]2(O)O[C@@H]3C[C@@]4(C=O)[C@@H](CC[C@@H]5[C@@H]4CC[C@]4(C)[C@@H](C6=CC(=O)OC6)CC[C@]54O)C[C@H]3O[C@@H]2O1` [CALACTIN], the GI50 was active: 0.0112 µM.
Next, `CCC(=C/[C@H](C)C/C=C/C(C)=C/[C@@H](C)C(=O)[C@@H](C)[C@H](O)[C@@H](C)CC)/C=C/[C@H]1CC=CC(=O)O1` [CALLYSTATIN A]: active: < 0.0012 µM; `C[C@@H]1C[C@H](O)[C@]2(O)O[C@@H]3C[C@@]4(C=O)[C@@H](CC[C@@H]5[C@@H]4CC[C@]4(C)[C@@H](C6=CC(=O)OC6)CC[C@]54O)C[C@H]3O[C@@H]2O1` [CALOTROPIN]: active: 0.0282 µM.
As for `O=c1[nH]c(=S)[nH]c(-c2ccccc2)c1Cc1c(O)ccc2ccccc12` [CAMBINOL], the GI50 is inactive: 29 µM.
Next, `COC(COC(N)=O)C1=C(N2CC2)C(=O)C(C)=C(N2CC2)C1=O` (stereo unspecified) [CARBOQUONE]: active: 0.33 µM.
Next, `NC(=O)CN1C=CCC(C(N)=O)=C1` [CARICOTAMIDE]: inactive: > 100 µM; `O=NN(CCCl)C(=O)NCCCl` [CARMUSTINE]: inactive: 177 µM.
Under `CC(C)c1cc2c(c(O)c1O)[C@@]1(C(=O)O)CCCC(C)(C)[C@@H]1CC2` [CARNOSIC ACID] stands inactive: 33.4 µM; under `CN(C)CCOC(=O)COc1ccc(Cl)cc1` [CENTROPHENOXINE HYDROCHLORIDE], inactive: > 100 µM; under `CN1C(=O)C(=O)c2cc3c(c4c2c1cc1ccccc14)OCO3` [CEPHARADIONE A], inactive: 20.7 µM.
Take `COc1c(CC(C)O)c2c3c(CC(C)O)c(OC)c(=O)c4c(O)cc5c(c6c(cc(O)c(c1=O)c62)OCO5)c43` (stereo unspecified) [CERCOSPORIN]: the GI50 is inactive: 1.82 µM.
Next, `O=C(/C=C/c1ccccc1)c1ccccc1` [CHALCONE]: inactive: > 10 µM; `C[C@H](CCC(=O)O)[C@H]1CC[C@H]2[C@@H]3[C@H](O)C[C@@H]4C[C@H](O)CC[C@]4(C)[C@H]3CC[C@]12C` [CHENODIOL]: inactive: 51.9 µM.
Next, `CC1=CC(=O)c2ccc(C)cc2C1=O` [CHIMAPHILIN]: inactive: 18.2 µM.
Under `Cc1ccc2nc3sc(=O)sc3nc2c1` [CHINOMETHIONAT] stands inactive: 15 µM; under `O=C(O)CCCc1ccc(N(CCCl)CCCl)cc1` [CHLORAMBUCIL], inactive: 205 µM.
In the case of `CCN(CC)CCCC(C)Nc1ccnc2cc(Cl)ccc12` (stereo unspecified) [CHLOROQUINE PHOSPHATE], the GI50 is inactive: 33.9 µM.
Under `COC1C(O)CC(OC2CC(Oc3cc4cc5c(c(O)c4c(O)c3C)C(=O)[C@@H](OC3CC(OC4CC(OC6CC(C)(O)C(OC(C)=O)C(C)O6)C(O)C(C)O4)C(O)C(C)O3)[C@H]([C@H](OC)C(=O)[C@@H](O)[C@@H](C)O)C5)OC(C)C2OC(C)=O)OC1C` (stereo partly specified) [CHROMOMYCIN] stands active: 0.00365 µM.
Consider `CC(C)=CC1C(C(=O)O)C1(C)C` (stereo unspecified) [CHRYSANTHEMIC ACID], for which the GI50 is inactive: > 750 µM.
Next, `CC1=C2C(=CO[C@H](C)[C@H]2C)C(O)=C(C(=O)O)C1=O` [CITRININ]: inactive: 20.4 µM; `c1c2c(cc3c1OCO3)-c1cc3ccc4c(c3c[n+]1CC2)OCO4` [COPTISINE CHLORIDE]: inactive: 1.5 µM.
Under `C[C@]12CCC(=O)C=C1CC[C@@H]1[C@@H]2C(=O)C[C@@]2(C)[C@H]1CC[C@]2(O)C(=O)CO` [CORTISONE] stands inactive: > 100 µM; under `O=c1oc2cc(O)ccc2c2oc3cc(O)ccc3c12` [COUMESTROL], inactive: 28.4 µM; under `CC[C@H]1C=CCC[C@@]2(C[C@@H]3CC[C@@H]4[C@H](C(=O)OCCCCCCCCCCCCCCCC(=O)O)[C@]5(CCC[C@@H](C)O5)NC(=[N+]34)N2)O1` [CRAMBESCIDIN 657], active: 0.879 µM.
Under `CC(=O)OC(C)(C)/C=C/C(=O)[C@](C)(O)[C@H]1[C@H](O)C[C@@]2(C)[C@@H]3CC=C4[C@@H](C[C@H](O)C(=O)C4(C)C)[C@]3(CO)C(=O)C[C@]12C` [CUCURBITACIN A] stands active: 0.925 µM.
Take `CC(=O)OC(C)(C)/C=C/C(=O)[C@](C)(O)[C@H]1[C@H](O)C[C@@]2(C)[C@@H]3CC=C4[C@@H](C=C(O)C(=O)C4(C)C)[C@]3(C)C(=O)C[C@]12C` [CUCURBITACIN E]: the GI50 was active: 0.794 µM.
Next, `COc1cc(/C=C/C(=O)CC(=O)/C=C/c2ccc(O)c(OC)c2)ccc1O` [CURCUMIN]: inactive: 16.7 µM; `CC1(C)S[C@@H]2[C@H](NC(=O)C3(N)CCCCC3)C(=O)N2[C@H]1C(=O)O` [CYCLACILLIN]: inactive: > 100 µM; `CC(C)=CCC[C@@H](C)[C@H]1CC[C@@]2(C)[C@@H]3CC[C@H]4C(C)(C)[C@@H](O)CC[C@@]45C[C@@]35CC[C@]12C` [CYCLOARTENOL]: inactive: 48.2 µM.
As to `CN(C)CCC=C1c2ccccc2C=Cc2ccccc21` [CYCLOBENZAPRINE HYDROCHLORIDE], the GI50 was inactive: 9.95 µM.
In the case of `NC1=NCCN1CC(=O)O` [CYCLOCREATINE], the GI50 is inactive: > 1000 µM.
For the compound `NC1(C(=O)O)CCCC1` [CYCLOLEUCINE], the GI50 is inactive: > 248 µM.
As for `O=P1(N(CCCl)CCCl)NCCCO1` (stereo unspecified) [CYCLOPHOSPHAMIDE ANHYDROUS], the GI50 was inactive: > 250 µM.
`C/C=C/C[C@@H](C)[C@@H](O)[C@H]1C(=O)N[C@@H](CC)C(=O)N(C)CC(=O)N(C)[C@@H](CC(C)C)C(=O)N[C@@H](C(C)C)C(=O)N(C)[C@@H](CC(C)C)C(=O)N[C@@H](C)C(=O)N[C@H](C)C(=O)N(C)[C@@H](CC(C)C)C(=O)N(C)[C@@H](CC(C)C)C(=O)N(C)[C@@H](C(C)C)C(=O)N1C` [CYCLOSPORINE]: the GI50 was inactive: 3.73 µM.
`COc1cc(/C=C2\CCC/C(=C\c3ccc(O)c(OC)c3)C2=O)ccc1O` [CYCLOVALONE]: the GI50 is inactive: 6.1 µM.
Next, `NCCSSCCN` [CYSTAMINE HYDROCHLORIDE]: inactive: > 100 µM; `NCCS` [CYSTEAMINE HYDROCHLORIDE]: inactive: > 100 µM; `CSC(=S)N(C)C` [CYSTOGON]: inactive: > 100 µM.
Under `C[C@H]1C/C=C/[C@H]2[C@@H]3O[C@]3(C)[C@@H](C)[C@H]3[C@H](Cc4ccccc4)NC(=O)[C@]32OC(=O)O/C=C/[C@@](C)(O)C1=O` [CYTOCHALASIN E] stands active: 0.56 µM.
Under `Nc1ncn([C@H]2C[C@H](O)[C@@H](CO)O2)c(=O)n1` [DECITABINE] stands inactive: 52.1 µM.
With `CC1=C2C(=O)C(C)(C)C=C2C(=O)[C@](C)(O)C12CC2` [DEHYDROILLUDIN M], the GI50 was active: > 1 µM.
Next, `Cc1cc(N)c2ccccc2[n+]1CCCCCCCCCC[n+]1c(C)cc(N)c2ccccc21` [DEQUALINIUM CHLORIDE]: inactive: 3.07 µM; `C[C@@H](CN1CC(=O)NC(=O)C1)N1CC(=O)NC(=O)C1` [DEXRAZOXANE]: inactive: 441 µM.
Next, `Nc1cc2[nH]cnc2c(=O)[nH]1` [DEZAGUANINE]: inactive: 169 µM.
